# Experimental data: the RNAGym collection of RNA variant scans (doi:10.7554/elife.90254)
# Read counts are not given, so values of variants with three or more changes are uncertain.
# B1: LINE1-mini (parent)
# chain: GGCAGAGCUCAACACAGCGUGGCAAAGUGGCUGUGGCUAGACUGCC
# Variants of: B1
# Assay: self-cleavage, relative activity (ratio to wild type); higher = more cleavage; in vitro, sequencing; the parent is a self-cleaving ribozyme
row,Variant,self-cleavage
1,GGCAGAGCUCAACAAAGCGUGGCCAAGUGGCUGUGGCUCGACUCCC [C15A A24C A39C G44C],0.01
2,GGCAGAGCUCAACUCAGCGUGGCAAAAUUGCUGUGGCUAGACUGCC [A14U G27A G29U],0.56
3,GGCAGAGCUCAACAAAGCGUGGCGAAUUGGCUGUGGCUAGACUGCC [C15A A24G G27U],0.09
4,GGCAGAGCUCAACUCAGCGUUGAAAAGUGGCUGUAGCUAGACUGCC [A14U G21U C23A G35A],0.11
5,GGCAGAGCUCAACUCAGCGUGUCAAAGUGGCUCUGGCUAGAAUGCC [A14U G22U G33C C42A],0.07
6,GGCAGAGCUCAACAAUGCGUGUCAACGUGGCUGUGGCUAGACUGCC [C15A A16U G22U A26C],0.01
7,GGCAGAGCUCAACUCAGCGUGGCAAAGUGGCUGUGCCUAGACAGCC [A14U G36C U43A],0.09
8,GGCAGAGCUCAACUCAGCGUGAGAAAGUGGCUGUGGCAAGAGUGCC [A14U G22A C23G U38A C42G],0.02
9,GGCAGAGCUCAACUCAGCGUGGCAAAGUGGCGGUGGCUAGAAUGCC [A14U U32G C42A],0.03
10,GGCAGAGCUCAACUCAGCGUAGCAAAGUGACUGUGGCUACACGGCC [A14U G21A G30A G40C U43G],0.01
11,GGCAGAGCUCAACUCAGCGUGACAUAGUGGCGGUGGCUAGACUCCC [A14U G22A A25U U32G G44C],0.04
12,GGCAGAGCUCAACUCAGCGUGGCAAAGUCGCUGGGGCUAGACUGCC [A14U G29C U34G],0.17
13,GGCAGAGCUCAACAAGGUGUGGCAAAGUGGCUGUGGCUAGACUGCC [C15A A16G C18U],0.02
14,GGCAGAGCUCAACAACGCGUUGCAAAGUGGCUGUGGCUAGACUGCC [C15A A16C G21U],0.03
15,GGCAGAGCUCAACAAAGCGUGGCUAAAUGGCUGUGGGUAGACUGCC [C15A A24U G27A C37G],0.18
16,GGCAGAGCUCAACAAGGCAAGGCAAAGUCGCUGGGGCUAGACUGCC [C15A A16G G19A U20A G29C U34G],0.01
17,GGCAGAGCUCAACUCAGCCUGGCAAAGUGGCUGUUGCUAGACUGCC [A14U G19C G35U],0.92
18,GGCAGAGCUCAACUCAACGUGGCAAAGUGGCGGUGGCUAGACUGAC [A14U G17A U32G C45A],0.05
19,GGCAGAGCUCAACUCAGCGUGGCAAACUGGCGGUGGCUAUACUGCC [A14U G27C U32G G40U],0.05

row,Variant,self-cleavage
1,GGCAGAGCUCAACUCAGCGUUGGAAAGUGGCUGUGGCUAGACUGCC [A14U G21U C23G],0.94
2,GGCAGAGCUCAACUCAGCGAGGCAUAGUGGCUGUGGCUAGACUGCC [A14U U20A A25U],0.03
3,GGCAGAGCUCAACUCAGCGUGGCAAAGUGUCGGUGGCUAGACUGUC [A14U G30U U32G C45U],0.03
4,GGCAGAGCUCAACUCAGCGUGGCAAAGCGGCUGUUGCUAGACUGCC [A14U U28C G35U],0.03
5,GGCAGAGCUCAACUCAGCGUGGCAAAGUGGCUGCGGCUAGACUGCU [A14U U34C C46U],0.05
6,GGCAGAGCUCAACUCAUCGUGGCAAAGUGGCUUUGGCUAGGCUGCC [A14U G17U G33U A41G],0.17
7,GGCAGAGCUCAACAAGGAGUGGCAAAAUGGCUGUGGCUAGACUGCC [C15A A16G C18A G27A],0.01
8,GGCAGAGCUCAACUCAGCGGGGCAAAGUGGCUGUGGUUAAACUGCC [A14U U20G C37U G40A],0.12
9,GGCAGAGCUCAACAAGGCGUGCCAAAGUGGCUGUGGCUAGACUGCC [C15A A16G G22C],0.02
10,GGCAGAGCUCAACAAAGCGUGGCUAAGUGGCUGUGGCUAGACUGCG [C15A A24U C46G],0
11,GGCAGAGCUCAACUCAGCGUGGCAAAGAGGCGAAGGCUAGACUGCA [A14U U28A U32G G33A U34A C46A],0.02
12,GGCAGAGCUCAACUCAGCGUGGCAAAGUGGCUGUGGGUAUCUUGAC [A14U C37G G40U A41C C42U C45A],0.09
13,GGCAGAGCUCAACUCAUCUUGGCAAAGUGGCUGUGGCUAGACUGCC [A14U G17U G19U],0.08
14,GGCAGAGCUCAACUCAGCCUGGCAAAGUGGCUGUGUCUAGACUGCC [A14U G19C G36U],0.02
15,GGCAGAGCUCAACUCAGCGUGGCAAAGUGGCUGUCGCUAAACUGCC [A14U G35C G40A],0.15
16,GGCAGAGCUCAACUCAGCGUGGCAAAGCGGAUGUGGCUAGACUGCC [A14U U28C C31A],0.04
17,GGCAGAGCUCAACUCAGCGUGACAAAAUAGCUGUGGCUAGACUGCC [A14U G22A G27A G29A],0.71
18,GGCAGAGCUCAACUCAGCGUGGCAAACUGUCUGUGGCUAGUGUGUC [A14U G27C G30U A41U C42G C45U],0.04
19,GGCAGAGCUCAACUCAGCGUGUCAAAGUGGCUGUGGCUAGGCUGCC [A14U G22U A41G],0.08

row,Variant,self-cleavage
1,GGCAGAGCUCAACUCAGCGUGGCAAAGUGGCUGUGGCUAAACUGCA [A14U G40A C46A],0.04
2,GGCAGAGCUCAACUCAGCUUGGCAAAGUGGCUGUGUCUUGACUGCC [A14U G19U G36U A39U],0.22
3,GGCAGAGCUCAACUCAGCGGUGCAAAGUUGCUGUGGCUAGACUGCC [A14U U20G G21U G29U],0.11
4,GGCAGAGCUCAACUCAGCCUGGCACAAUGGCUGUGGCUAGACUGCC [A14U G19C A25C G27A],0.1
5,GGCAGAGCUCAACUCAGCGUGGCAAACUGACUGUGGCUAGAAUGCC [A14U G27C G30A C42A],0.05
6,GGCAGAGCUCAACUCAGCGAGCCAAAGUGGCUGUGGGUAGGCUGCC [A14U U20A G22C C37G A41G],0.07
7,GGCAGAGCUCAACUCAGCGUGGCAAAGUGGCAGUGGCUUGUCUGCC [A14U U32A A39U A41U],0.03
8,GGCAGAGCUCAACUCAGCGUGGCAAAGUGGCUGUGGCAAGCAUGCC [A14U U38A A41C C42A],0.05
9,GGCAGAGCUCAACAAAGCGUGGCUAAGUGGCUGUGGUUAGAAUCCC [C15A A24U C37U C42A G44C],0.06
10,GGCAGAGCUCAACUCAGCGUGGCAAAAUGGCUGUUGCUGGACUGCC [A14U G27A G35U A39G],0.02
11,GGCAGAGCUCAACAAAGCGUGGCCAAGUGGCUGUGGCUAAACGGCC [C15A A24C G40A U43G],0.04
12,GGCAGAGCUCAACUCAGCGUGGCAAAGUGGCUGUAUCUAGACUACC [A14U G35A G36U G44A],0.04
13,GGCAGAGCUCAACUCAGCGUGGCAAAAAGUCUGUGGCUAGACUGCC [A14U G27A U28A G30U],0.17
14,GGCAGAGCUCAACUCAGCGUGGCAAAGUGCCUGUUGCUAGACUGCC [A14U G30C G35U],0.07
15,GGCAGAGCUCAACAACGCGUGGCAAAGUGGCUGUGGCUACACUGCC [C15A A16C G40C],0.1
16,GGCAGAGCUCAACUCAGCGUGGCAAAGUGGCUCUGGCCAGACUGCC [A14U G33C U38C],0
17,GGCAGAGCUCAACUCAGCGUGGCAAAGUGGCUGUUGCGAGACUGCC [A14U G35U U38G],0.04
18,GGCAGAGCUCAACUCAGCGUUGCAAAGUGGCUGUGGCUAGACUGGC [A14U G21U C45G],0.06
